{
  "source": "PubChem BioAssay AID485294",
  "about": "(National Center for Advancing Translational Sciences (NCATS), 2010)",
  "note": "The whole screen tested about 370,000 compounds, of which about 150 (0.041%) were called active. This list was built around the results that the source calls inconclusive (neither active nor inactive); the mix of calls is not that of the screen. The call rests on the fitted dose curve; in most records, active means well fitted inhibition curve with a large enough effect; inconclusive means small, poorly fitted or top-dose-only effect; inactive means flat fitted curve, though single readings scatter. No potency is given beside an inconclusive call; the fits are too rough. Potency means the concentration at half of the fitted maximal effect; tags describe the fitted curve by direction and shape.",
  "data": [
    {"target": "Beta-lactamase (Escherichia coli (strain K12)) (UniProt P00811)", "sequence (P00811 whole entry, looked up)": "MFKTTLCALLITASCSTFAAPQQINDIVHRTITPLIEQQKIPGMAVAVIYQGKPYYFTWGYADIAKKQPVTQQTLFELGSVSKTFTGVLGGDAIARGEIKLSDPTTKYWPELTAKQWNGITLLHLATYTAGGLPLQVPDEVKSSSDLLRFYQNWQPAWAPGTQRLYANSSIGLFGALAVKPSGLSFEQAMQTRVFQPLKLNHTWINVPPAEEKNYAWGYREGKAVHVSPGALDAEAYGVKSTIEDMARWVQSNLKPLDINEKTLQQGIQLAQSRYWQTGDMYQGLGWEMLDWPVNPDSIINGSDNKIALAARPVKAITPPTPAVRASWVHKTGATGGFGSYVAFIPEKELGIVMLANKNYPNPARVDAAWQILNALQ", "assay": "qHTS Inhibitors of AmpC Beta-Lactamase (assay with detergent); further: nearly all actives have a fitted effect of over 25% in size", "details": "AmpC hydrolysis of nitrocefin, absorbance 480 nm, 0.01% Triton; series mostly up to 114 µM", "method_in_brief": "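AmpC (5.3 nM in the dispensed reagent) in 20 mM phosphate pH 7.0 with 0.01% (detergent screen) or 0.0001% Triton X-100 was preincubated with compounds for 15 min at room temperature. Nitrocefin was then added from an 800 uM solution, and hydrolysis was followed at 480 nm.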", "values": [
      {"smiles": "O=C(CCn1c(=O)sc2ccccc21)NCc1ccc2c(c1)OCO2", "Potency": "inactive"},
      {"smiles": "COc1cc(Br)c(CNCCc2ccc3c(c2)OCO3)cc1OC", "Potency": "inconclusive [inhibitor, partial curve, poor fit]"},
      {"smiles": "Cc1cccc(NS(=O)(=O)c2c(C(=O)N3CCCC3)c(C)n(C)c2C)c1", "Potency": "inactive"},
      {"smiles": "COc1ccc(N2CCN(C(=S)Nc3ccccc3OC)CC2)cc1", "Potency": "inconclusive [inhibitor, full curve, poor fit]"},
      {"smiles": "NC(=S)N/N=C\\c1c2ccccc2cc2ccccc12", "Potency": "inactive"},
      {"smiles": "Cc1ccc(NC(=O)c2csc(-c3ccccc3)c2C)cc1", "Potency": "inactive"},
      {"smiles": "Cc1cccc(C(=O)Oc2ccc(/C=N/O)cc2)c1", "Potency": "inactive"},
      {"smiles": "O=C(Nc1ccc2[nH]ncc2c1)c1ccccc1Br", "Potency": "inactive"},
      {"smiles": "Cc1ccc(Cc2cncc(O)c2)cc1S(=O)(=O)O", "Potency": "inconclusive [inhibitor, single point]"},
      {"smiles": "COc1ccc(C(=O)N2CCn3c(C)ccc3C2C)cc1", "note": "(configuration not stated)", "Potency": "inactive"},
      {"smiles": "CCC(=O)Nc1cccc(C(=O)c2ccc(C)c(C)c2)c1", "Potency": "inactive"},
      {"smiles": "CCOC(=O)N1CCC(N(CCOC)C(=O)Nc2ccc(C)c(C)c2)CC1", "Potency": "inconclusive [inhibitor, single point]"},
      {"smiles": "O=c1c2cccnc2n(-c2ccccc2)n1Cc1c(Cl)cccc1Cl", "Potency": "inconclusive [inhibitor, full curve, poor fit]"},
      {"smiles": "O=C(Nc1ccc(N2CCN(Cc3ccccc3)CC2)cc1)c1ncn[nH]1", "Potency": "inconclusive [inhibitor, full curve]"},
      {"smiles": "O=S(=O)(c1cccs1)N1CCN(CCOc2ccc(Cl)cc2)CC1", "Potency": "inactive"},
      {"smiles": "CC1CN(S(=O)(=O)Cc2ccccc2)CC(C)O1", "note": "(configuration not stated)", "Potency": "inconclusive [inhibitor, partial curve, poor fit]"},
      {"smiles": "Cn1c(-c2ccc(Br)cc2)cnc1NCc1ccc(C#N)cc1", "Potency": "inconclusive [inhibitor, partial curve, poor fit]"},
      {"smiles": "O=C(CCCc1ccccc1)NCc1ccccn1", "Potency": "inconclusive [inhibitor, full curve, poor fit]"},
      {"smiles": "COCCCNC(=O)c1ccc(-n2c(-c3ccccc3)cc3c2CCC(C)C3)cc1", "note": "(configuration not stated)", "Potency": "inactive"},
      {"smiles": "CCC(=N\\NC(=O)COc1ccccc1OC)/C(CC)=N/NC(=O)COc1ccccc1OC", "Potency": "inactive"},
      {"smiles": "COc1ccc(NC(=O)C2CCCN(S(=O)(=O)c3ccc4c(c3)oc(=O)n4C)C2)c(OC)c1", "note": "(configuration not stated)", "Potency": "inconclusive [inhibitor, partial curve]"},
      {"smiles": "CCOC(=O)c1cc(-c2ccccc2)sc1NC(=O)C(C)N1C(=O)NC(C)(c2ccc(Cl)cc2)C1=O", "note": "(configuration not stated)", "Potency": "inactive"}
    ]}
  ]
}
